Assay results from the RNAGym collection of RNA variant scans (doi:10.7554/elife.90254).
The source gives no read counts; variants with many changes may rest on few reads.

B1: LINE1-mini (parent)
chain: GGCAGAGCUCAACACAGCGUGGCAAAGUGGCUGUGGCUAGACUGCC

Variants of: B1
Assay: self-cleavage, relative activity (ratio to wild type); higher = more cleavage; in vitro, sequencing; the parent is a self-cleaving ribozyme
With GGCAGAGGUCAACAGAGCGUGGCAAAAUGGCUCUGGCUAGACUGCC [C8G C15G G27A G33C] the self-cleavage was 0.02. For GGCAUAGCUCAACACAGCGUGGCAUAGUGGCUUUGGCUAGAAUGCC [G5U A25U G33U C42A], the self-cleavage was 0.07. For GGCAUAGCUCGACAAAGCGGGGCAAAGUGGCUGUGGCUAAACUGCC [G5U A11G C15A U20G G40A], the self-cleavage was 0.03. In the case of GGCAGGGCUAAACACAGCGUGGCAAAGUGGCCGUGGCUAUACUGCC [A6G C10A U32C G40U], the self-cleavage is reported as 0. GGCUGAAAUCAAAACAGCGUGGCAAAGUGGCUGGGGCUAGACUCCC [A4U G7A C8A C13A U34G G44C] gave a self-cleavage of 0.12. For GGCAGAACUCAACACAGCGUGGCAAAGUAGCUGUGGAUAGACAGCC [G7A G29A C37A U43A], the self-cleavage was 0.72. GGCGGAGCUCAACACAGCGUGGCAAAGUGGCUGUGGCUGGACUUCC [A4G A39G G44U] showed a self-cleavage of 0.1. Work on GGCAGAGCUGAACACAGCGUGGCAAAGCGGCUGGGGCUAGACUGCC [C10G U28C U34G] yielded a self-cleavage of 0.03. For GGCAUAGCUCAACACCGCGUGGCAAAGUGUCUGUGGCUAGACUGCC [G5U A16C G30U], the self-cleavage was 0. With GGUAGAGCUCCACACAGCGUGGCAAAGUGGCUGUUGCUAGACUGCC [C3U A11C G35U] the self-cleavage was 0. Variant GGCAGAGCUCAACACAGCUUGGCACAGUGGCUGUGGCCAGACUGCC [G19U A25C U38C] has a self-cleavage of 0.27. Work on GGAAGAGCUCAAGACAGCGUGGCAAAGUGGCCGUGGCUAGACUGCC [C3A C13G U32C] yielded a self-cleavage of 0.47. GGCAGAGCUCAAAACAGCGUGGUGAAGUGACUGUGGCUAGACUGAC [C13A C23U A24G G30A C45A] showed a self-cleavage of 0.29. Work on GGGAGAGCUCAACACAGCGUGUCCAAGUGGAUGUGGCUAAACUGCC [C3G G22U A24C C31A G40A] yielded a self-cleavage of 0.24. GGCAGCGCUCAAUACUGCUUGGCAAAGUGGCUGUGGCUAGACUGCC [A6C C13U A16U G19U] showed a self-cleavage of 0.08. Work on GACAGAGCUCAACACAGCGGCGGAACGUGGCUGUGGCUAGACUGCC [G2A U20G G21C C23G A26C] yielded a self-cleavage of 0.44. Work on AGCAGACCUCAACAAAGCGUGGCAAAGGGGCUGUGGCUAGACUGCC [G1A G7C C15A U28G] yielded a self-cleavage of 0.06. In the case of AGCAGAGCUCAACACAGCGUGGCCAAGUGGCUGGGGAUUGACUGCC [G1A A24C U34G C37A A39U], the self-cleavage is reported as 0.03. GGCAGAUCUCAACACAGCGUGACAAAGUGGCUGUGUCUAGGCUGCC [G7U G22A G36U A41G] gave a self-cleavage of 0.01. Work on GGCAGAGCUCAAUACAGCGUGGCAAAGUGGCUAUGGCUACACUGCC [C13U G33A G40C] yielded a self-cleavage of 0.04. GGCAUAGCUCAACUCAGCCUGGCAAAGUGGCUGUGGCUAGACUGCC [G5U A14U G19C] showed a self-cleavage of 0.03. In the case of AGCAGAGCUCAACAUAGGGUGGCAAAGUGCCUGUGGCUAGACUGCC [G1A C15U C18G G30C], the self-cleavage is reported as 1.46. With GGAAGAGCUCAACAAAGCGUGGCAAAGUGGCUAUGGGUAGACUGCC [C3A C15A G33A C37G] the self-cleavage was 0.16. GGCAGAGCUCAACACAGCGUGUCAAACUGGCUGUUGCUAGACUCCC [G22U G27C G35U G44C] showed a self-cleavage of 0.07. With GGCAGACCUCAACACAGCGUGGCACAGUGGCUGUGGCCAGACUGCC [G7C A25C U38C] the self-cleavage was 0.05. GGCGGAGCUCAACACAGGGUGUAAAAGUGGCUGUGGCUAGACUGCC [A4G C18G G22U C23A] gave a self-cleavage of 0.34. GGCAGAGCUCAACACAGGGUGGUAAUGUGGCUGUGGCUAGACUGCC [C18G C23U A26U] gave a self-cleavage of 1.29. Variant GGUCGAGCUCAACACAGCGUGGCAAAGUUGCUGUGGCUAGAUUGCC [C3U A4C G29U C42U] has a self-cleavage of 0.11. For GGCAGAGCACAACACAGCCUGGCAAAGUGGCUGUGCCUAGACUGCC [U9A G19C G36C], the self-cleavage was 0.04. GGCGAAGCUAAACACAGAGUGGCACAGUGGCUGUGGCUAGACUGCC [A4G G5A C10A C18A A25C] showed a self-cleavage of 0.03. Variant GGCAGAGCUCUACACUGCGUGGCAAAGUGGCUGUGGCUAGUUUGCA [A11U A16U A41U C42U C46A] has a self-cleavage of 0.02. Variant GGCAGAGGUCAACAGAGCGUGGCAAAGUGGCUGUGCCUAGACUGCC [C8G C15G G36C] has a self-cleavage of 0.03. Work on GGCAGAGCUCAACACACCGUGGCAAAGCGGCUGUGGAUAGACUGCC [G17C U28C C37A] yielded a self-cleavage of 0. Work on GGCAGAGCUCAACACUGUGUGGCAAAGUGGUUGUGGCGAGACUGCC [A16U C18U C31U U38G] yielded a self-cleavage of 0.01. With GCCAGAGCUCAACACAGCGUGGCAAAGUGGCUGUGGUUAGACUGAC [G2C C37U C45A] the self-cleavage was 0.23. For GGCAGAGCUCAACACAGCGUGGCAAAGUGACUGUGGCUUGACAACC [G30A A39U U43A G44A], the self-cleavage was 0.09. For GGCAGAGCUCAGCCUAGCGCGGCAAAGUGGCUGUGGCUAGACUGCC [A12G A14C C15U U20C], the self-cleavage was 0.01. GGCAGAGCUCUACACAGCGUGGCAAAGUGGCUGUGGCUAGACUAGC [A11U G44A C45G] gave a self-cleavage of 0. Work on GGCAGAGCUCAACACAGCGGGCCAAAGUGGCUGUGGCUAGACUUCC [U20G G22C G44U] yielded a self-cleavage of 0.01. GGCAGAGCGCAACACAGAGUGGCAAAGGUGCUGUGGCUAGACUGCC [U9G C18A U28G G29U] showed a self-cleavage of 0.05. With GGCAGAGCUCAACACAGCGUGGCAUAGUGGCUGUGGCUCGACUGGC [A25U A39C C45G] the self-cleavage was 0.33. With GGUAGAGCUCAACACAGCGUGGUGAAGUGGCUGUGGCUAGACUGCC [C3U C23U A24G] the self-cleavage was 0.58. GGCAGAGGUCAACACACCGUGGCAAAGUGGCUGUGGCUACACUGCC [C8G G17C G40C] gave a self-cleavage of 0.02. GGCAAAGCUCAACACAACGUGGCAAAGUGGCUGGGGCUAGACUGCC [G5A G17A U34G] showed a self-cleavage of 0.06. For GGCAGAGGUUAAGACAGCGUGGCAAAGUGGCUGUGGCUAGAAUGCA [C8G C10U C13G C42A C46A], the self-cleavage was 0.13. For GGCAGGGAUAAACACAGCGUGGCAAAGUGGCUGUGGCUAGACUGCC [A6G C8A C10A], the self-cleavage was 0.01. GGCAGAGCUCAACACAGCGUGGCAAAGUGGCUUUGUCCAGACUGCC [G33U G36U U38C] gave a self-cleavage of 0.02. Variant GGCAGCGCUAAACACAGCGUGGCAAAGUGUCUGUGGCUAGACUUCC [A6C C10A G30U G44U] has a self-cleavage of 0.02. Work on GGCAGAGGUCAACACAGCGAGGCAUCGUGGCUGUGGCUAGACUGCC [C8G U20A A25U A26C] yielded a self-cleavage of 0.06. GGCAGAGAUCAACACAACUUGGCAAAGUGGCUGUGGCUAGGCGGCC [C8A G17A G19U A41G U43G] showed a self-cleavage of 0.05. GCCAGAGUUCAACGCAGAGUGGCAAAGUGGCUGUGGCUAGACUGCC [G2C C8U A14G C18A] gave a self-cleavage of 0.01. GGUAGAGCUCAACACAGCGUGGCAAAUUGGCUGUGGCUAGACUCCC [C3U G27U G44C] gave a self-cleavage of 0.17. GGCAGAGCUUAUCACAGCGUGGCAAAGUGUCUGUGGAUAGACUGCC [C10U A12U G30U C37A] showed a self-cleavage of 0.01. For GGCAGAACUCAACACGGCGUGGCAACGUGGCUGUGGCUAGACUGCC [G7A A16G A26C], the self-cleavage was 0.08. With GGCAGAGCUCAACACAGCGUGGCAAAAUGGCAGUGGCUAGACUGAC [G27A U32A C45A] the self-cleavage was 0.1. GGCAGAGCUCAACACAGCUUGGCAAAGUUGCUGUGGCUAGACUGCG [G19U G29U C46G] showed a self-cleavage of 0.46.
